Source: article PMC5836133
Some of the results follow. At the low end of the ranking, values are background and their order means little.

These sequences were tested on T1, GST-NbGlk1(82-244) (assay: protein-binding microarray). Settings: NbGlk1 is a Golden2-like transcription factor of Nicotiana benthamiana; high values mean tight binding; most listed sequences are background and not binding sites; double strand, one strand shown.
T1 sequence: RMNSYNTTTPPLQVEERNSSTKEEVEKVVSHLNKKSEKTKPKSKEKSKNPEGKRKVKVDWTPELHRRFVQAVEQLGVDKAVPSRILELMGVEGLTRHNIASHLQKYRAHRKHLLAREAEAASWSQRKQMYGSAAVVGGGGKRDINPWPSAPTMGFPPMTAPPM
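Further: rank-based score ranging −0.5 to +0.5 with E above 0.45 taken as significant binding.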

Sequence	binding signal [E-score]
AATCTAGT	0.421
AGGCCCTG	-0.271
ACGACCCG	-0.144
AGCTTCGA	-0.162
AGGCACCA	-0.0285
CAACGTCC	-0.257
CACACATA	0.135
AAAAATCG	0.389
CACTGAGC	-0.252
ATAGCGGC	-0.0415
CAGCCACA	-0.0728
AAAAACCA	-0.023
ATAATCTC	0.346
ACTCAAGC	-0.117
AATAGTGA	-0.136
ATGTGCCA	-0.0502
ATCGGAAC	0.0791
ACACGGCA	-0.088
ATGTTCCC	-0.0564
AACCCTGT	-0.148
AAAGCCGT	-0.257
AAAGGCCA	-0.21
ACAACATG	-0.0545
ACATGGGC	-0.116
AAGAAACG	0.0189

Sequence	binding signal [E-score]
ATATCCAA	0.407
AATGATGG	0.0186
ACAGAATA	0.257
AGAGTGCG	-0.154
ACTCACCC	-0.208
AAAGTGAC	-0.0637
ATCCGGGA	0.241
AGTGTTAT	-4.16e-05
AGCAAGTC	-0.165
AAGCGTTC	-0.094
ACGTAACC	0.0963
AGGGGTCG	-0.248
AGTAACGC	-0.157
CAAGCTGA	-0.187
ATGCTAGG	-0.0271
AATACCAC	0.152
ATCTACAC	0.34
ACGGTCTA	-0.0505
AGCAAACA	-0.0626
ACCTCTGC	-0.23
AAAAGCAA	0.104
ACCGTTCG	-0.207
AATGGCAT	-0.211
AGCAGATA	0.259
AGTACGTA	0.00602

Sequence	binding signal [E-score]
ACTAGTTA	-0.0683
AAGTCCCA	-0.262
AAAGCCCC	-0.361
AGAAACAT	0.0809
ACAGTTAG	-0.0445
ATCGAAGG	0.0131
AAGGTGCA	-0.148
ACATTTGA	0.013
AACTACTA	0.107
AAGTGAAG	-0.196
ACCAGCCT	-0.122
ATCTCAAG	0.256
AGATCAGG	0.199
CAAATTGA	0.0183
AGGCTCAG	-0.183
CAAGGCAG	-0.0717
ACTACCGA	0.0202
ATTTTACC	0.148
ATTTTCGC	0.186
AAAGGTAC	-0.147
AACTATTA	0.0421
ACAGTAGG	-0.0203
AGACCAAT	-0.0539
ACATCTAA	0.155
AGGTTCCC	-0.231

Sequence	binding signal [E-score]
ATGTTATG	-0.0213
ATGGGAAT	0.296
ACTGCTCG	0.00881
ACTTGCAC	-0.0718
AATGCATT	0.0368
ATGGTCGC	-0.155
CACCTTTC	-0.14
ACAGACAA	0.111
ATTGGGAC	-0.0364
ATATCCCC	0.36
ATACGTCA	0.0405
ACGTCTTA	-0.0459
CACGGCAG	-0.147
AATCACGT	0.304
AGTTGGAC	-0.301
AGTCTAAT	-0.087
AGACTGCG	-0.111
CAGATCAA	0.00768
AGTCATTA	-0.0127
AGTGGGAA	-0.123
CACAGGTC	-0.215
AACACGTC	-0.104
AGCTGTGG	-0.269
ATCGTCCC	0.0736
AACCGTAG	-0.185

Sequence	binding signal [E-score]
CAATTACG	0.18
AATTATCA	0.0622
ACGATCCG	0.223
AAACGGCC	-0.164
AACTGCGG	0.0269
AAAGTTGA	0.0552
ATATGGAT	0.316
ACTGTAAC	-0.0715
AACTTTGA	-0.0965
AACGGCTG	-0.192
AAGTTTAT	-0.0134
AGGCAGCA	-0.07
AAGACTCG	-0.0955
ACAAAAAT	0.238
AGATAGTC	0.00315
ACCCAATG	-0.0983
AGTAGAAT	0.267
AACCTGAA	0.0483
AGAGTTAT	0.0292
AAGAACGG	-0.123
AAGATGGC	-0.0665
ACCCAACA	-0.109
CAAGTTAC	-0.0377
ATTCCGAA	0.183
CAATCTTC	0.294

Sequence	binding signal [E-score]
AAGGCGGG	-0.0985
AAGCAGCA	-0.0683
ATATGTGG	0.149
AATTGACG	0.0464
ACGATTGA	0.0146
AGGTTAAT	-0.0119
AGAATCCG	0.478
AAGTGTCG	0.0825
AGCTATGG	-0.147
AACTGTCA	-0.0168
ATTCTGCG	0.217
AACTTTTA	-0.0292
CAGAATGG	-0.122
AACAACCC	-0.117
AACTGGAC	-0.0886
ATACTTGG	0.0374
AATAGGGC	-0.0947
AGCCGGAC	-0.253
AACGATAC	-0.0331
AGCCTAAT	-0.142
AACTCCAC	-0.198
AGAGGTAG	-0.183
AGTGCTGC	-0.219
CACTGACC	-0.133
AAGTCTTA	0.128

Sequence	binding signal [E-score]
ACTCTGTG	-0.0988
ACACCGCT	-0.0746
AATACGAT	0.294
CAAGTAAG	-0.0631
AAATGGGG	-0.00232
AGGTGACC	-0.26
ATCTTGAG	0.247
ATCGAACA	0.111
AGACTAGA	0.128
AACTCCAT	-0.0877
ATCTTTAG	0.26
ATACAAAC	0.0933
ATAAATAG	0.0539
ACCTGGAT	0.224
CAATGAGA	0.0544
AATAGCAG	-0.0661
AGACGATC	0.259
AAAGTAAG	0.0408
AAGGACAG	-0.0866
ATAGTCCG	-0.17
AGCATCCT	-0.0903
ATCCTCCA	0.285
